Measurements: PubChem BioAssay AID1159614 (National Center for Advancing Translational Sciences (NCATS), 2016)
Among all 45,000 compounds or so, about 65 (0.1%) were called active. Calls follow the shape of the dose curve; as a rule, active = well fitted activation curve with a large enough effect; inconclusive = small, poorly fitted or top-dose-only effect; inactive = no such curve, though single readings can be large or run the other way. The list shows a part of the results.

What follows are compounds tested against Galactocerebrosidase (Homo sapiens) (UniProt P54803) (assay: A Novel Cell-Based Assay to Identify Small Molecules for B -Galactocerebrosidase). Details: 145M-Twi-hGALC-G270D cells (Twitcher mouse brain line with human GALC G270D), HMU-beta-Gal fluorescence, 48 h; series mostly up to 57.5 µM; activation: at the top concentration.
UniProt P54803, sequence (P54803 whole entry, looked up): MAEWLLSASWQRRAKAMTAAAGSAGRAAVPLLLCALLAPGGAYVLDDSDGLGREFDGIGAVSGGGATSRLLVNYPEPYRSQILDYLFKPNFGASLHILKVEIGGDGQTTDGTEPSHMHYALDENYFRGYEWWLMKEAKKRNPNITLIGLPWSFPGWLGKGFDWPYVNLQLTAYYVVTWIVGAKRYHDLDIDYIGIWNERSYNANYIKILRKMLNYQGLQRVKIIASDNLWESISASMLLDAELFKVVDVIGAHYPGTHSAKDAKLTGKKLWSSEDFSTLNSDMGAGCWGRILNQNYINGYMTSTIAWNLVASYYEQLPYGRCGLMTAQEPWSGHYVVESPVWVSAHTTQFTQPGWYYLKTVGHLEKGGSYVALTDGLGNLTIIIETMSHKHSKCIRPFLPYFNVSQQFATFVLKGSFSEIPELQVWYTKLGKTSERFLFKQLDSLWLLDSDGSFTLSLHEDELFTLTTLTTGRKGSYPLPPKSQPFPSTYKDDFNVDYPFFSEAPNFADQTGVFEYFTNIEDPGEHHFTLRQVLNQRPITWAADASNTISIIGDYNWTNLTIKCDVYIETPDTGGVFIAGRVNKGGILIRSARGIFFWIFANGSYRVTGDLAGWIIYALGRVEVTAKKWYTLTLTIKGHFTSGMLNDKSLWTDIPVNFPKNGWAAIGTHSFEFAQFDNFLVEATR
Outline: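 Fluorescence readout: HMU-β-gal cleavage by mutant GALC (0.1 mM final, citrate/phosphate pH 5.2 with 1 mg/mL taurocholate), stopped with carbonate/bicarbonate plus Triton X-100. Cells: murine Twitcher 145M-Twi expressing human G270D GALC; qHTS for activators.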
Also: 0% is about no effect; nearly all actives have a fitted effect of over 65% in size.

activation, inactive:
COc1cccc(C(=O)Nc2ccc3oc(-c4cccc5c(Br)cccc45)nc3c2)c1 -4.5%, COc1ccccc1N1CCN(C(=O)c2cnn(-c3ccc(F)cc3F)c2C2CCNCC2)CC1 -26.1%, CN(C)S(=O)(=O)c1ccc(C(=O)NCCSc2c(-c3ccc(Cl)cc3)[nH]c3ccccc23)cc1 -8.86%, Cc1cccc(OCC(=O)Nc2cccc3cccnc23)c1C -13.7%, CCOC(=O)c1c(NC(=O)c2ccccc2OCC)sc2c1CCC(CC)C2 (configuration not stated) -14.6%, COc1ccc(N2CCN(C(=O)CCc3c(C)nc4cc(-c5ccc(OC)cc5OC)nn4c3C)CC2)cc1 -1.62%, Cc1ccc2cccc(NC(=O)C(C)(C)Oc3ccc(Br)cc3)c2n1 -14.9%, CCOc1ccc(NC(=O)CSc2nc(-c3ccc(F)cc3)cc(C(F)(F)F)c2C#N)cc1 -23.2%, CCOc1ccc(NC(=O)CCS(=O)(=O)c2ccc3c(c2)n(C)c(=O)c(=O)n3C)cc1 -11.6%, CCN(Cc1ccccc1)C(=O)CN1C(=O)COc2ccc(S(=O)(=O)N3CCCCCC3)cc21 -4.85%, Cc1ccc(NC(=O)CCS(=O)(=O)c2cccc3nsnc23)c(C)c1 3.26%, CCn1cc2nc(SCc3ccccc3F)n(Cc3ccc(C)cc3)c(=O)c2n1 -41%, CCOC(=O)c1ccccc1NC(=O)Cn1c2ncccc2c(=O)n1-c1ccccc1 -18%, CCOCCCn1c(SCC(=O)Nc2ccc(OC)cc2OC)nc2ccccc2c1=O -11.6%, CCOC(=O)CSc1nc2ccc(NC(=O)c3ccccc3)cc2s1 5.34%, COc1cccc(C(=O)c2cn(CC(=O)Nc3cccc(C)c3C)c3nc(C)ccc3c2=O)c1 -8.58%, Cc1ccc(C)c(N2CCN(Cc3nnc(-c4ccccc4)o3)CC2)c1 -28.7%, Cc1cccc(C)c1NC(=O)Cn1nc(C)c2sc3ccccc3c2c1=O -17%, COc1ccc(-c2cn3c(n2)sc2cc(C(=O)Nc4cc(Cl)ccc4C)ccc23)cc1 -15.8%, CCc1ccc(C(=O)Nc2ccc3nn(-c4ccc(C)c(Cl)c4)nc3c2)cc1 3.74%, Cc1ccc(CN2CCc3nc(SCC(=O)Nc4cccc(C)c4C)[nH]c(=O)c3C2)cc1 -1.98%, COc1ccc2oc(-c3ccc(C)c(NC(=O)Cc4ccc(Cl)cc4)c3)nc2c1 -4.98%, CCSc1ncc(Cl)c(C(=O)Nc2c(C(=O)c3ccccc3)oc3ccccc23)n1 -32.4%, Cc1ccccc1CN1CCN(CC(=O)NCc2ccccc2Cl)C1=O -16%, O=C(NCCc1csc(-c2ccc(F)cc2)n1)c1ccc(Br)o1 -19.6%, Cc1nc2cc(-c3ccccc3)nn2c(C)c1CCC(=O)N1CCN(c2ccccc2)CC1 -13%, Cc1cccc(NC(=O)c2cc(S(=O)(=O)N3CCC4(CC3)OCCO4)ccc2F)c1 -16.5%
